Source: the supplement of paper PMC9151546
Repeats are few or missing, and single values can be far off.

What was measured:
CHO-K1 [1] = assay: hypodiploid nuclei frequency (% of nucleated events); higher = more hypodiploid events (aneugenic)
CHO-K1 [2] = assay: relative survival (nuclei to bead ratio vs DMSO control) (% of vehicle control); higher = more surviving cells
CHO-K1 [3] = assay: micronucleus frequency (% of nucleated events); higher = more micronuclei (genotoxic)
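Wherever hypodiploid nuclei frequency (% of nucleated events) is given: hypodiploid nuclei gated on a flow cytometer with 488 nm excitation after SYTOX Green staining, cultures at 37 °C, positive controls vinblastine without S9 and cyclophosphamide with S9.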
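Wherever micronucleus frequency (% of nucleated events) is given: cells lysed with nuclei stained by SYTOX Green, then micronucleus-gated events counted against nucleated events by flow cytometry with 488 nm excitation.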
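Wherever relative survival (nuclei to bead ratio vs DMSO control) is given: Lysed-cell nuclei stained with SYTOX Green and counted against counting beads by flow cytometry at 488 nm excitation, with vinblastine (no S9) and cyclophosphamide (plus S9) as positive controls.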

COC(=O)c1ccc(C(=O)OC)cc1 [Dimethyl terephthalate]
Settings	hypodiploid nuclei frequency, CHO-K1 [1] [%]	micronucleus frequency, CHO-K1 [3] [%]	relative survival, CHO-K1 [2]
concentration: 4.5 (µM), S9 metabolic activation: with S9, exposure time: 3-4 hours	0.28	1.5	95.6
concentration: 4.5 (µM), S9 metabolic activation: without S9, exposure time: 24 hours	2.16	1.68	95.5
concentration: 5.63 (µM), S9 metabolic activation: with S9, exposure time: 3-4 hours	0.48	2.06	100
concentration: 5.63 (µM), S9 metabolic activation: without S9, exposure time: 24 hours	1.28	1.74	101
concentration: 7.04 (µM), S9 metabolic activation: with S9, exposure time: 3-4 hours	0.48	1.7	95.4
concentration: 7.04 (µM), S9 metabolic activation: without S9, exposure time: 24 hours	1.4	1.94	109
concentration: 8.8 (µM), S9 metabolic activation: with S9, exposure time: 3-4 hours	0.36	3.06	96.7
concentration: 8.8 (µM), S9 metabolic activation: without S9, exposure time: 24 hours	1.66	1.62	109
concentration: 11 (µM), S9 metabolic activation: with S9, exposure time: 3-4 hours	0.38	1.96	111
concentration: 11 (µM), S9 metabolic activation: without S9, exposure time: 24 hours	1.22	1.66	111
concentration: 13.7 (µM), S9 metabolic activation: with S9, exposure time: 3-4 hours	0.28	1.82	94.1
concentration: 13.7 (µM), S9 metabolic activation: without S9, exposure time: 24 hours	1.5	1.42	88.8
concentration: 17.2 (µM), S9 metabolic activation: with S9, exposure time: 3-4 hours	0.22	1.8	88.3
concentration: 17.2 (µM), S9 metabolic activation: without S9, exposure time: 24 hours	1.14	2.04	105
concentration: 21.5 (µM), S9 metabolic activation: with S9, exposure time: 3-4 hours	0.34	1.68	99
concentration: 21.5 (µM), S9 metabolic activation: without S9, exposure time: 24 hours	1.34	1.86	105
concentration: 26.8 (µM), S9 metabolic activation: with S9, exposure time: 3-4 hours	0.3	1.46	99
concentration: 26.8 (µM), S9 metabolic activation: without S9, exposure time: 24 hours	9.24	1.9	78.3
concentration: 33.6 (µM), S9 metabolic activation: with S9, exposure time: 3-4 hours	0.22	1.76	83.6
concentration: 33.6 (µM), S9 metabolic activation: without S9, exposure time: 24 hours	5.42	2.18	75.1
concentration: 41.9 (µM), S9 metabolic activation: with S9, exposure time: 3-4 hours	0.46	1.84	68.9
concentration: 41.9 (µM), S9 metabolic activation: without S9, exposure time: 24 hours	3.32	1.86	83.4
concentration: 52.4 (µM), S9 metabolic activation: with S9, exposure time: 3-4 hours	0.18	1.6	97.8
concentration: 52.4 (µM), S9 metabolic activation: without S9, exposure time: 24 hours	2.24	1.8	75.6
concentration: 65.5 (µM), S9 metabolic activation: with S9, exposure time: 3-4 hours	0.22	1.7	86.5
concentration: 65.5 (µM), S9 metabolic activation: without S9, exposure time: 24 hours	1.6	1.56	89.2
concentration: 81.9 (µM), S9 metabolic activation: with S9, exposure time: 3-4 hours	0.32	1.42	81.2
concentration: 81.9 (µM), S9 metabolic activation: without S9, exposure time: 24 hours	1.64	1.84	89.2
concentration: 102 (µM), S9 metabolic activation: with S9, exposure time: 3-4 hours	0.28	1.78	83.8
concentration: 102 (µM), S9 metabolic activation: without S9, exposure time: 24 hours	2	1.84	104
concentration: 128 (µM), S9 metabolic activation: with S9, exposure time: 3-4 hours	0.44	1.9	85.5
concentration: 128 (µM), S9 metabolic activation: without S9, exposure time: 24 hours	1.74	2.26	98.5
concentration: 160 (µM), S9 metabolic activation: with S9, exposure time: 3-4 hours	0.28	1.68	80.2
concentration: 160 (µM), S9 metabolic activation: without S9, exposure time: 24 hours	1.92	2.06	104
concentration: 200 (µM), S9 metabolic activation: with S9, exposure time: 3-4 hours	0.16	2.06	84.1
concentration: 200 (µM), S9 metabolic activation: without S9, exposure time: 24 hours	1.74	2.76	84.2

CC(=O)OCCC(C)C [3-Methylbutyl acetate]
Settings	hypodiploid nuclei frequency, CHO-K1 [1] [%]	micronucleus frequency, CHO-K1 [3] [%]	relative survival, CHO-K1 [2]
concentration: 4.5 (µM), S9 metabolic activation: with S9, exposure time: 3-4 hours	0.34	1.94	130
concentration: 4.5 (µM), S9 metabolic activation: without S9, exposure time: 24 hours	0.56	0.88	114
concentration: 5.63 (µM), S9 metabolic activation: with S9, exposure time: 3-4 hours	0.3	1.98	131
concentration: 5.63 (µM), S9 metabolic activation: without S9, exposure time: 24 hours	1.28	1.5	102
concentration: 7.04 (µM), S9 metabolic activation: with S9, exposure time: 3-4 hours	0.24	2.06	111
concentration: 7.04 (µM), S9 metabolic activation: without S9, exposure time: 24 hours	0.92	1.12	126
concentration: 8.8 (µM), S9 metabolic activation: with S9, exposure time: 3-4 hours	0.34	2.38	112
concentration: 8.8 (µM), S9 metabolic activation: without S9, exposure time: 24 hours	0.94	1.04	119
concentration: 11 (µM), S9 metabolic activation: with S9, exposure time: 3-4 hours	0.4	2.62	100
concentration: 11 (µM), S9 metabolic activation: without S9, exposure time: 24 hours	0.96	1.26	94.4
concentration: 13.7 (µM), S9 metabolic activation: with S9, exposure time: 3-4 hours	0.36	1.62	101
concentration: 13.7 (µM), S9 metabolic activation: without S9, exposure time: 24 hours	0.8	1.18	113
concentration: 17.2 (µM), S9 metabolic activation: with S9, exposure time: 3-4 hours	0.14	1.4	95.5
concentration: 17.2 (µM), S9 metabolic activation: without S9, exposure time: 24 hours	0.84	1.24	105
concentration: 21.5 (µM), S9 metabolic activation: with S9, exposure time: 3-4 hours	0.2	1.36	94.1
concentration: 21.5 (µM), S9 metabolic activation: without S9, exposure time: 24 hours	0.86	1.02	104
concentration: 26.8 (µM), S9 metabolic activation: with S9, exposure time: 3-4 hours	0.32	1.62	108
concentration: 26.8 (µM), S9 metabolic activation: without S9, exposure time: 24 hours	1.46	1.64	99.8
concentration: 33.6 (µM), S9 metabolic activation: with S9, exposure time: 3-4 hours	0.1	1.4	114
concentration: 33.6 (µM), S9 metabolic activation: without S9, exposure time: 24 hours	1.1	0.98	124
concentration: 41.9 (µM), S9 metabolic activation: with S9, exposure time: 3-4 hours	0.28	2.12	124
concentration: 41.9 (µM), S9 metabolic activation: without S9, exposure time: 24 hours	1.56	1.16	101
concentration: 52.4 (µM), S9 metabolic activation: with S9, exposure time: 3-4 hours	0.28	1.72	144
concentration: 52.4 (µM), S9 metabolic activation: without S9, exposure time: 24 hours	1.66	1.18	88.6
concentration: 65.5 (µM), S9 metabolic activation: with S9, exposure time: 3-4 hours	0.28	1.48	110
concentration: 65.5 (µM), S9 metabolic activation: without S9, exposure time: 24 hours	1.4	1.2	83.5
concentration: 81.9 (µM), S9 metabolic activation: with S9, exposure time: 3-4 hours	0.36	2.9	101
concentration: 81.9 (µM), S9 metabolic activation: without S9, exposure time: 24 hours	1.8	1.74	102
concentration: 102 (µM), S9 metabolic activation: with S9, exposure time: 3-4 hours	0.3	1.62	104
concentration: 102 (µM), S9 metabolic activation: without S9, exposure time: 24 hours	2.52	1.66	116
concentration: 128 (µM), S9 metabolic activation: with S9, exposure time: 3-4 hours	0.24	1.5	84.9
concentration: 128 (µM), S9 metabolic activation: without S9, exposure time: 24 hours	1.64	2.84	123
concentration: 160 (µM), S9 metabolic activation: with S9, exposure time: 3-4 hours	0.29	1.72	88.4
concentration: 160 (µM), S9 metabolic activation: without S9, exposure time: 24 hours	1.64	1.64	120
concentration: 200 (µM), S9 metabolic activation: with S9, exposure time: 3-4 hours	0.2	1.6	108
concentration: 200 (µM), S9 metabolic activation: without S9, exposure time: 24 hours	2.52	2.2	83.5
